Values joined by “and” are separate entries in the source; they are usually repeats but may differ in a detail not shown here. Equal entries are not always repeated. The full ranking holds about 5,300 compounds; the median of “PER2::LUC luminescence relative to vehicle control” is about 0.96, and the highest 2% start at about 1.3. Some of the results follow.
Tested on: mPer2Luc MEF
Experiment: PER2::LUC luminescence relative to vehicle control (fold of vehicle); higher = higher PER2::LUC reporter signal
Settings: 10 µM
In short: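 The value is PER2::LUC luminescence expressed as fold of vehicle control. Mouse embryonic fibroblasts carrying the mPer2Luc reporter were seeded at ~3000 cells per well in 384-well plates and grown in DMEM with 10% FBS at 37 °C and 5% CO2. Compounds from commercial libraries were added at 10 μM 48 h after seeding, and luminescence was read with the ONE-Glo luciferase assay system 24 h and 30 h after treatment, followed by an alamarBlue viability assay.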

Row | Structure (SMILES) | PER2::LUC luminescence (time after treatment 24 h) | PER2::LUC luminescence (time after treatment 30 h)
1 | O=c1c(O)c(-c2ccc(O)c(O)c2)oc2c(O)c(O)cc(O)c12 | 1.01 | 0.946
2 | C=CC[N+]1(C)CC[C@]23c4c5ccc(O)c4O[C@H]2C(=O)CC[C@@]3(O)[C@H]1C5 (some centres not stated) | 1.08 | 1.05
3 | CN1CCc2cc3c(cc2C1O)OCO3 (configuration not stated) | 1.04 | 1.1
4 | CP(=O)(O)CCCN | 1 | 0.948
5 | C/C1=C/C(=O)O[C@@H]2C[C@@H](CC[C@H](C)/C=C\C=C\CC1)O[C@@](O)([C@@H]1CSC(=O)N1)C2 | 0.505 | 0.846
6 | COc1ccc(C(=O)O)cc1OC | 1.1 | 0.778
7 | CC1(C)C2CC(=O)[C@]3(C)C(CC[C@@]4(C)[C@H](c5ccoc5)OC(=O)[C@H]5O[C@]543)[C@@]2(C)C(=O)C[C@H]1O (some centres not stated) | 1.03 | 1.03
8 | COc1ccc2[nH]cc(C3=CCNCC3)c2c1 | 0.892 and 0.778 | 0.983 and 0.819
9 | NP(N)(=O)NC(=O)c1ccc(F)cc1 | 0.919 | 0.843
10 | CCCCC(C#N)(Cn1cncn1)c1ccc(Cl)cc1 (configuration not stated) | 1.03 | 1.08
11 | CC(N)c1cccc(Cl)c1Cl (racemic) | 1.01 | 0.901
12 | O=C(O)[C@H]1[C@H]2CN[C@H](C(=O)O)[C@H]21 | 1.03 | 0.89
13 | NCC(=O)c1ccccc1 | 1.21 | 1.22
14 | Clc1cccc(SC2CCNCC2)n1 | 0.995 | 0.952
15 | CCN(CC)CCOC(=O)C(O)(c1ccccc1)c1ccccc1 | 0.998 | 1.01
16 | N[C@H](CCP(=O)(O)O)C(=O)O | 1.01 | 1.02
17 | C/C1=C/C[C@@H](/C(C)=C/c2csc(C)n2)OC(=O)C[C@H](O)C(C)(C)C(=O)[C@H](C)[C@@H](O)[C@@H](C)CCC1 | 0.484 | 0.443
18 | CN(C)C(=O)Oc1cccc([N+](C)(C)C)c1 | 1.17 | 0.827
19 | CN1[C@H]2C[C@H](OC(=O)[C@H](CO)c3ccccc3)C[C@@H]1[C@@H](O)C2 | 1.05 and 0.935 | 1 and 0.907
20 | O=C(Oc1ccc([N+](=O)[O-])cc1)N1CCN(Cc2cccc(Oc3ccccc3)c2)CC1 | 1.08 | 1.07
21 | NCCCC[C@H](NC(=O)[C@H](Cc1ccccc1)NC(=O)[C@@H](CCCN=C(N)N)NC(=O)[C@@H](N)Cc1ccc(O)cc1)C(N)=O | 1.05 | 0.925
22 | COc1ccc(C(CN(C)C)C2(O)CCCCC2)cc1 (configuration not stated) | 0.911 and 0.541 | 1 and 0.808
23 | COc1cc2c(cc1OC)-c1c(oc3c4c(ccc3c1=O)OC(C(C)C)C4)CO2 (configuration not stated) | 0.967 | 0.977

Row | Structure (SMILES) | PER2::LUC luminescence (time after treatment 24 h) | PER2::LUC luminescence (time after treatment 30 h)
24 | CCN(CCCl)Cc1ccccc1Br | 1 | 0.815
25 | CC(=O)[C@H]1CC[C@H]2[C@@H]3CC[C@H]4C[C@H](O)CC[C@]4(C)[C@H]3C(=O)C[C@]12C | 0.966 | 0.917
26 | CC(=O)c1c(O)c(C)c(O)c(Cc2c(O)c3c(c(C(=O)/C=C/c4ccccc4)c2O)OC(C)(C)C=C3)c1O | 0.738 | 0.764
27 | CCOc1cc(C=O)ccc1O | 0.938 | 0.851
28 | COc1ccccc1N1CCNCC1 | 1.1 | 1.2
29 | C=C1[C@@H](C)[C@H]2[C@H](Cc3ccccc3)NC(=O)[C@]23[C@H](OC(C)=O)/C=C/[C@@](C)(O)C(=O)[C@@H](C)C/C=C/[C@H]3[C@@H]1O | 1.05 | 0.997
30 | C=C1C[C@@H]2[C@H](CC[C@]3(C)C(=O)CC[C@@H]23)[C@@]2(C)C=CC(=O)C=C12 | 0.932 | 1.01
31 | O=C(O)c1cc[c]([Hg][Cl])cc1 | 1.2 | 1.14
32 | CC(N)Cc1c[nH]c2ccc(O)cc12 (racemic) | 1.05 | 1.09
33 | FC(F)(F)c1cccc(N2CCNCC2)c1 | 0.975 and 0.794 | 0.781 and 0.743
34 | CC1=NN=C(c2ccc(N)cc2)c2cc3c(cc2C1)OCO3 | 1.05 | 0.803
35 | C[C@]12C/C(=C/O)C(=O)C[C@@H]1CC[C@@H]1[C@@H]2CC[C@@]2(C)[C@H]1CC[C@]2(C)O | 1.01 | 0.774
36 | C[C@H]1CNCCc2ccc(Cl)cc21 | 0.947 and 0.839 | 0.969 and 0.871
37 | CSCCC(NC(=O)C(Cc1ccccc1)NC(=O)CNC(=O)CNC(=O)C(N)Cc1ccc(O)cc1)C(=O)O (configuration not stated) | 0.995 | 0.903
38 | CC1CC(Cl)CCC1C(=O)OC(C)(C)C (configuration not stated) | 0.953 | 0.925
39 | CCOP(=S)(OCC)Oc1ccc2c(C)c(Cl)c(=O)oc2c1 | 1.03 | 1.18 and 1.16
40 | Cn1c2c(c3ccccc31)CCNCC2 | 1.1 | 0.994
41 | O=C1C=CC(=O)C=C1 | 0.854 | 0.939
42 | COC[C@@H](NC(C)=O)C(=O)NCc1ccccc1 | 1.17 | 1.19
43 | COc1ccc2c(c1OC)C(=O)OC2C1c2cc3c(cc2CCN1C)OCO3 (single isomer, unassigned; (+)) | 1.06 | 0.794
44 | COC(=O)NC(=S)Nc1ccccc1NC(=S)NC(=O)OC | 0.99 | 0.937
45 | C[C@](N)(CCP(=O)(O)O)C(=O)O | 0.97 | 0.986
46 | O=C(O)[C@@H]1CCN1 | 0.932 | 0.86

Row | Structure (SMILES) | PER2::LUC luminescence (time after treatment 24 h) | PER2::LUC luminescence (time after treatment 30 h)
47 | O=C(O)Cc1cnc[nH]1 | 0.944 and 1.14 | 0.715 and 1.08
48 | CC(C)(C)NCC(O)COc1cccc2[nH]c(C#N)cc12 (single isomer, unassigned; (-)) | 0.962 | 0.862
49 | CNC(=O)Oc1ccccc1OC(C)C | 0.891 | 1.02
50 | C[C@]12COC(=O)C[C@@H]1CC[C@@H]1[C@@H]2CC[C@@]2(C)[C@H]1CC[C@]2(C)O | 1.03 | 1.01
51 | CCCn1c(C)c(C(=O)c2cccc3ccccc23)c2ccccc21 | 0.957 | 0.853
52 | O=C(C[S+]([O-])C(c1ccccc1)c1ccccc1)NO (configuration not stated) | 0.977 | 0.998
53 | CCC(C)C(NC(=O)C1CCCN1C(=O)C(CCC(=O)O)NC(=O)C(NC(=O)C(Cc1ccccc1)NC(=O)C1CCCN1C(=O)C(N)Cc1ccc(O)cc1)C(C)C)C(=O)O (configuration not stated) | 1.05 | 0.972
54 | O=P1(N(CCCl)CCCl)NCCCO1 (configuration not stated) | 0.993 and 0.979 | 0.957 and 0.918
55 | c1ccc2c(c1)sc1ccccc12 | 1.05 | 0.946
56 | CO[C@@H]1C=C2CCN(C)[C@@H]2C2c3cc4c(cc3C(=O)OC21)OCO4 (some centres not stated) | 1.05 | 1.08
57 | CC(=O)OCC1=C(C(=O)[O-])N2C(=O)[C@@H](NC(=O)CCC[C@@H](N)C(=O)[O-])[C@H]2SC1.[Zn+2] | 1.12 | 1.05
58 | CN1C(=O)CCS(=O)(=O)C1c1ccc(Cl)cc1 (configuration not stated) | 0.985 | 0.976
59 | CCCCCCC(=O)CCCCCC/C=C/C[C@@H](O)[C@H](O)[C@@](N)(CO)C(=O)O | 1.26 | 1.35
60 | COP(=S)(OC)Oc1ccc(Sc2ccc(OP(=S)(OC)OC)cc2)cc1 | 1.1 | 0.974
61 | COc1cc2c(cc1OC)C13CC[N+]4([O-])CC5=CCOC6CC(=O)N2C1C6C5CC34 (configuration not stated) | 1.02 | 0.997
62 | CCOP(=S)(OCC)Oc1nc(Cl)c(Cl)cc1Cl | 1.08 | 1.03
63 | COc1ccc(/C=C2\CCCN=C2c2cccnc2)c(OC)c1 | 0.832 | 0.837
64 | CCCN1CCO[C@@H]2c3cc(O)ccc3OC[C@H]21 (racemic) | 1.23 and 0.995 | 0.765 and 0.905
65 | CCCN1CCO[C@@H]2c3cc(O)ccc3OC[C@H]21 | 1.07 and 1.03 and 1.19 | 0.968 and 0.946 and 0.997
66 | Cc1ccc(-n2nccn2)c(C(=O)N2CCN(c3nc4cc(Cl)ccc4o3)CC[C@H]2C)c1 | 0.986 and 0.694 | 0.965 and 0.954
67 | c1ccc2c3c([nH]c2c1)CNCC3 | 0.992 and 0.964 | 1.07 and 1
68 | CN(C(=O)Cc1ccccc1)[C@H](CN1CCCC1)c1ccccc1 | 0.98 | 0.923
69 | CN1CCN(c2cccc3[nH]c(=O)oc23)CC1 | 0.962 | 0.999

Row | Structure (SMILES) | PER2::LUC luminescence (time after treatment 24 h) | PER2::LUC luminescence (time after treatment 30 h)
70 | CCCCCCCCCCCCCCCC[n+]1ccccc1 | 0.146 and 0.154 | 0.201 and 0.12
71 | C=CCC1(C(C)CCC)C(=O)NC(=S)NC1=O (configuration not stated) | 0.974 | 0.97
72 | CC(=O)O[C@@H]1CC[C@@]2(C)[C@@H](CC[C@@H]3[C@@H]2CC[C@]2(C)C(=O)CC[C@@H]32)C1 | 0.99 | 1
73 | COC(=O)c1cc2c(cn1)[nH]c1ccccc12 | 0.974 | 0.935
74 | C[C@@H]1O[C@@H](O[C@H]2C[C@@H](O)[C@]3(CO)[C@H]4[C@H](O)C[C@]5(C)[C@@H]([C@@H]6COC(=O)C6)CC[C@]5(O)[C@@H]4CC[C@]3(O)C2)[C@H](O)[C@H](O)[C@H]1O | 0.939 | 0.777
75 | c1ccc(/N=N/c2ccccc2)cc1 | 1.07 | 1
76 | C[C@@H]1CC[C@]2(NC1)O[C@H]1C[C@H]3[C@@H]4CC=C5C[C@@H](O)CC[C@]5(C)[C@H]4CC[C@]3(C)[C@H]1[C@@H]2C | 0.944 | 1.02
77 | CN1C2CC(=O)CC1C(O)C2 (configuration not stated) | 0.978 | 0.972
78 | O=C1C(Cl)=C(Cl)C(=O)C(Cl)=C1Cl | 0.974 | 1.06
79 | O=C1N=c2cc([N+](=O)[O-])c([N+](=O)[O-])cc2=NC1=O | 0.996 | 0.963
80 | Cc1sc2c(c1C)C(c1ccc(Cl)cc1)=N[C@@H](CC(=O)OC(C)(C)C)c1nnc(C)n1-2 | 0.153 | 0.14
81 | COc1ccc(OC)c(C(O)C(C)N)c1 (configuration not stated) | 1.09 | 1.04
82 | Cc1ncc(C[n+]2csc(CCO)c2C)c(=O)[nH]1 | 1.01 | 0.895
83 | CC([C@H](O)c1ccccc1)N(C)C (some centres not stated) | 0.928 | 0.985
84 | C=CCN1C[C@H](C)N([C@@H](c2ccccc2)c2ccc(C(=O)N(CC)CC)cc2)C[C@H]1C | 0.99 | 0.937
85 | CCC(=O)O[C@H]1CC[C@H]2[C@@H]3CCC4=CC(=O)CC[C@]4(C)[C@H]3CC[C@]12C | 0.867 | 0.975
86 | c1ccc2sc(C3(N4CCCCC4)CCCCC3)cc2c1 | 0.863 and 0.801 | 0.807 and 0.814
87 | COc1cc(CC(C)N)c(OC)cc1I (racemic) | 0.894 | 0.844
88 | C[N+]1(C)C2CCC1CC(OC(=O)c1c[nH]c3ccccc13)C2 (configuration not stated) | 1.12 | 0.868
89 | N#C/C(=C\c1ccc(O)c(O)c1)C(N)=S | 1.04 | 1.07
90 | CCCC[N+]1(C)[C@@H]2C[C@@H](OC(=O)[C@H](CO)c3ccccc3)C[C@H]1[C@@H]1O[C@@H]12 (single isomer, unassigned; (-)) | 0.876 | 0.756
91 | C(=C\c1ccccc1)/CN1CCN(CCOC(c2ccccc2)c2ccccc2)CC1 | 0.799 | 0.72

Reference: the supplement of paper PMC9334596
